Measured values taken from PubChem BioAssay AID1963437 (Molecular Pharmacology Branch, DTP, NCI, 2024).
For part of its entries the source gives two or more results. They are shown here; other results are not. The source may hold further records. Results that share an entry repeat one measurement in other runs, samples, wells, individuals or studies. Marks such as (2×) count equal records among those shown.

Tested on: OVCAR-8 complex spheroid, growth inhibition
Test: Anticancer human tumor OVCAR-8 cell line growth inhibition [Asc];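 note: spheroids exposed to agents for 7 days before readout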;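 for viability, T/C: percent viability relative to DMSO vehicle wells taken as 100%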
Conditions: for viability, T/C: stronger effect = lower value
Method: Multicellular complex tumor spheroid response to apoptosis pathway targeting inhibitors Alrizomadlin, Pelcitoclax, and Dasminapant in combination with a variety of drugs and investigational agents in selected tumor cell lines
The MDM2 inhibitor alrizomadlin, the Bcl-2/Bcl-xL inhibitor pelcitoclax, and the IAPs inhibitor dasminapant were evaluated both individually and in combination with standard of care and investigational anticancer small molecules within a complex spheroid model of solid tumors. . Complex spheroids include a stromal component modeled by human endothelial cells (HUVEC) and fibroblasts modeled by human mesenchymal stem cells (MSCs). The concentration ranges selected for each drug and investigational agent were based upon clinically achievable concentrations if the clinical Cmax of the agent was known.
Compounds. The drugs and investigational agents: alrizomadlin (APG-115; NSC831270), pelcitoclax (APG-1252; NSC835773), dasminapant (APG-1387;NSC834197), TAK-243 (NSC785004), copanlisib (NSC809693), olaparib (NSC753686), talazoparib (NSC767125), cobimetinib (NSC 768068), eltanexor (KPT-8602, NSC 794443), abemaciclib (NSC 768073), sotorasib (NSC818433), adagrasib (NSC 831453), MRTX-1133 (NSC 836407), Iadademestat (ORY1001, NSC 806812), and RMC-4630 (NSC839698), were obtained from the NCI Developmental Therapeutics Program Chemical Repository. The FDA-approved anticancer drug set is available from the Developmental Therapeutics Program at https://dtp.cancer.gov/organization/dscb/obtaining/available plates.htm. […] The stock solutions were prepared in dimethyl sulfoxide (DMSO, Sigma-Aldrich, St. Louis, MO, cat. D2650) at 800-fold the tested concentration and stored at -70 degrees C prior to their use. All drugs and investigational agents were tested over a range starting from a high concentration at or near the clinical Cmax and decreasing in half-log increments. If the clinical Cmax for an agent had not been determined, the highest concentration tested was 10 microM.
The patient-derived cancer (PDC) cell lines include five colon adenocarcinomas: 186277-243-T-J2-PDC, 616215-338-R-J1-PDC, 439559-082-T-J2-PDC, 463943-066-T-J2-PDC, and 519858-162-T-J1-PDC; three pancreatic carcinomas: 323965-272-R-J2-PDC, 521955-158-R6-J3-PDC, and 521955-158-R2-J5-PDC; two uterine sarcomas: 327498-152-R-J2-PDC and 993429-296-R-J1-PDC; two rhabdomyosarcomas: 755483-174-R-J1-PDC and 772245-204-R-J1-PDC; two soft tissue sarcomas: 126254-015-R-J1-PDC and 494315-158-R-J1-PDC; two malignant fibrous histiocytomas: 317291-083-R-J1-PDC and 596521-263-R-J1-PDC; two breast carcinomas: 171881-019-R-J1-PDC and 885512-296-R-J2-PDC; and one ovarian carcinoma: 6556581-035-R-J-PDC were obtained from the NCI PDMR, (https://pdmr.cancer.gov). The established cell lines HSSY-2 synovial sarcoma (RRID:CVCL 8719), SYO-1 synovial sarcoma (RRID:CVCL_7146), MPNST malignant peripheral neural sheath tumor were obtained from the Sloan Kettering Institute. The following established cell lines were purchased from the American Type Culture Collection (ATCC, Manassas, VA), Sor the received from the NCI repository:, PANC-1 pancreatic carcinoma (CRL-1469, RRID:CVCL_0480), OVCAR-5 ovarian carcinoma (RRID:CVCL_1628), OVCAR-8 ovarian carcinoma (RRID:CVCL_1629), , MCF-7 breast carcinoma (CRL-12584, RRID:CVCL_0031), MDA-MB-231 breast carcinoma (CRL-12532, RRID:CVCL_0062), NCI-H1876 small cell lung carcinoma (CRL-5902, RRID:CVCL_1503), NCI-H510A small cell lung carcinoma (HTB-184, RRID:CVCL_1565), NCI-H1417 (CRL-5869, RRID:CVCL_1469), and NCI-H196 small cell lung carcinoma (CRL-5823, RRID:CVCL_1509). Dr. Peter Houghton (Greehey Children's Cancer Research Institute, University of Texas Health Science Center, San Antonio, TX) provided Rh-18 rhabdomyosarcoma (RRID:CVCL_1659). Pooled donor human umbilical vein endothelial cells (HUVEC, Lonza, cat. CC-2519) and human mesenchymal stem cells (hMSC, Lonza, cat. PT-2501) were purchased from Lonza (Walkersville, MD).
Cell Culture. […]

## NC(=O)C(=Cn1cnc(-c2cc(C(F)(F)F)cc(C(F)(F)F)c2)n1)c1cncnc1
Compound alone 0.0949 µM
  viability, T/C: 98.3%, 92.3%, 9.25%
Compound alone 0.3 µM
  viability, T/C: 69.8%, 70.3%, 5.04%

## Cc1c(S(C)(=O)=O)c(-c2cc(F)cc(N3CCN(c4ccc(NS(=O)(=O)c5ccc(NC(CCN6CCC(C(=O)OCCCP(=O)(O)O)CC6)CSc6ccccc6)c(S(=O)(=O)C(F)(F)F)c5)cc4)CC3)c2)c(-c2ccc(Cl)cc2)n1C(C)C (centres undefined)
Compound alone 0.316 µM
  viability, T/C: 97.4, 87.8, 99.5, 93.4, 119, 92.7, 86.5%
Compound alone 10 µM
  viability, T/C: 99.4, 120, 92.8, 104, 94, 90.3, 89.5%

## CNC(C)C(=O)NC1CN(S(=O)(=O)c2cccc(S(=O)(=O)N3CCC4CCC(C(=O)NC(c5ccccc5)c5ccccc5)N4C(=O)C(NC(=O)C(C)NC)C3)c2)CCC2CCC(C(=O)NC(c3ccccc3)c3ccccc3)N2C1=O (centres undefined)
OVCAR-8 complex spheroid, combination growth inhibition, compound alone, run of 11/15/2022
  IC50: < 3.16 nM and > 1 µM
Compound alone 0.00316 µM
  viability, T/C: 89.2, 84.5, 0.68, 98.5, 110, 107, 95, 102, 94.7%
Compound alone 0.01 µM
  viability, T/C: 82.1, 85.4, 103 (2×), 124, 98.2, 97.2, 107, 101%
Compound alone 0.0316 µM
  viability, T/C: 79.8, 83.7, 99.4, 98.5, 129, 110, 108 (2×), 98.6%
Compound alone 0.1 µM
  viability, T/C: 84, 96 (2×), 95.5 (2×), 113, 99.5, 94.2, 107%
Compound alone 0.316 µM
  viability, T/C: 78.8, 76.5 (2×), 81.9, 84.5, 114, 82.4, 88.4, 85.9%
Compound alone 1 µM
  viability, T/C: 66.8, 68.7, 88.7, 75.4, 102, 83.2, 83, 77.4, 84.7%

## CCN1C(C(=O)NC23CCC(C(=O)O)(CC2)CC3)C(c2cccc(Cl)c2F)C2(C(=O)Nc3cc(Cl)ccc32)C12CCCCC2 (centres undefined)
Compound alone 0.00949 µM
  viability, T/C: 87.9, 94.9, 88, 89, 82, 107, 80.6, 95.2, 105%
Compound alone 0.0949 µM
  viability, T/C: 92.2, 108, 96.2, 80.5, 101, 103, 88.8, 95.8, 94.9%
Compound alone 0.3 µM
  viability, T/C: 92.7, 96.9, 114, 87.7, 97, 94.4, 96.2, 108, 111%
